The values below come from paper PMC10726135.

The other results are listed elsewhere or left out. At the low end of the ranking the order means little. Measured with an extract: partners may take part in the binding.

In this experiment the target is T1, HNF4alpha8 (COS-7 nuclear extract) (UniProt P41235-5).
T1 sequence: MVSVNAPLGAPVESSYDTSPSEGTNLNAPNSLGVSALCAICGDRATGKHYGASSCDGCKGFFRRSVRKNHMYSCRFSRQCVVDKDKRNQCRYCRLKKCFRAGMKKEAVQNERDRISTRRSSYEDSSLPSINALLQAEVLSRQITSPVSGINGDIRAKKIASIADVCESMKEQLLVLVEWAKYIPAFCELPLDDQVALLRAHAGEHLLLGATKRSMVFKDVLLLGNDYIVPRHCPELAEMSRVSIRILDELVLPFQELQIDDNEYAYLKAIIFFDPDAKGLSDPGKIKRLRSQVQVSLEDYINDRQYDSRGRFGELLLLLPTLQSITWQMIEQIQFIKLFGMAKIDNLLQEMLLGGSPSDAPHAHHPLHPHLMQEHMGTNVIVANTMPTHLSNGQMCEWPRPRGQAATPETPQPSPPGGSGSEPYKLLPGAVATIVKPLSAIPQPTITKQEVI
The experiment can be described thus: protein-binding microarray. The note with it: COS-7 nuclear extract on double-stranded Agilent 4x180k PBM; binding buffer, salt, pH and temperature not given; high values mean tight binding; double strand, one strand shown; sequences stand for … in …GCCTAGGGAGATTAGAGTATCGGTCGA
As to GTTTTCCCATTCATGACATTGATTTATTGT, the binding signal (log2 normalized intensity) came to 1.07.

Turning to GTGAGAATCCCAGCTCGTGGGCATGCCTCC, the binding signal (log2 normalized intensity) was -1.37.

GGGCCACGCCCTGCACCCTACGTAAATGCA: the binding signal (log2 normalized intensity) was -1.23.

Consider CACAAACATCACCTACCTGACTCCTTAGGG, for which the binding signal (log2 normalized intensity) is -1.36.

Consider ACTGGCCCATTAGAACAAAGATCAAAGCAG, for which the binding signal (log2 normalized intensity) is -1.37.

With GGCGCGGGATCCTCTTTCCTGCAGGCCCAT, the binding signal (log2 normalized intensity) was -1.28.

Consider GGTATCAGAGTGGAGCCAGATGCACACAGG, for which the binding signal (log2 normalized intensity) is -1.32.

On to TGGTGGCACAGGGAATGGCTCGTATGAATG, for which the binding signal (log2 normalized intensity) is -0.602.

As for TTTGCAATGTAAACATCAAGGAAGAGAACT, the binding signal (log2 normalized intensity) is -1.28.

Regarding TTCTCCCCCGATAAGGCTGCCTCCTATCCT, the binding signal (log2 normalized intensity) is 3.

Take AGAAACGCCTGGCGCTTATCTGAGCACACA: the binding signal (log2 normalized intensity) is -1.37.

AATGATATGGACAATGAAATTCAGGCTGAG: the binding signal (log2 normalized intensity) was -1.35.

CTTTCTCTCTCCCTTCCTGGAGCCAAGGTT: the binding signal (log2 normalized intensity) was 1.66.

As for AAATTGATCTAGATAAGTTAGTTTACTTAG, the binding signal (log2 normalized intensity) is -0.657.

As for AACCCTGGCTGGAGTTGCTGAAATTCCCAC, the binding signal (log2 normalized intensity) is -1.22.

Regarding CTCCATCCCTCATCTGTCATTCCCTCACTC, the binding signal (log2 normalized intensity) is -1.17.

Take TGTGGTTGACAGGCAACAATTTGAGGGGTC: the binding signal (log2 normalized intensity) came out at 2.22.

In the case of CACTGGGCTGATGACCTTTGACTGAGATGG, the binding signal (log2 normalized intensity) turned out to be 5.81.

For the sequence TGGAACGGGGGCAAGGGTCAGAGTAAAGCT, the binding signal (log2 normalized intensity) came out at 4.21.

Take ACTTTCCAGTCTAGGTCTGGAAGGAAGGAG: the binding signal (log2 normalized intensity) is -1.25.

Turning to GTAGGTACGTTTGTGATACACCTTGCCTGG, the binding signal (log2 normalized intensity) is 0.594.

As to ATACAAGTCGTAAAGACCTTGCTGATTACA, the binding signal (log2 normalized intensity) was -1.38.

Take CAAGCCCTCTAACTATGCAGTGTCCATGGT: the binding signal (log2 normalized intensity) is 1.58.

For the sequence AGGGTTAAGCTCATGCTTTCATCTCCCCAA, the binding signal (log2 normalized intensity) was 1.87.

Take CCGCGATTAAAAATGGAACAGTAAGTGTTA: the binding signal (log2 normalized intensity) came to 0.151.

As for TGTCAAAGGGAGAAAGACATGTTTCTAACT, the binding signal (log2 normalized intensity) is -1.21.

With TCTGCTTGCAACCAAAGGAGTCCTGGCTGA, the binding signal (log2 normalized intensity) is -1.35.

Turning to GTCTGAGCACATCACACAGGCATATTTGGT, the binding signal (log2 normalized intensity) is -0.288.

On to ATTTGGACTTTTTGTAGTTTCAGCTTCTTC, for which the binding signal (log2 normalized intensity) stood at 1.53.

Consider GGTGGGCAGAGGCCTGATGGTGAGTTCTGT, for which the binding signal (log2 normalized intensity) amounted to 0.175.

For TTGACCTTTATACCTGTACGTTACTCTGTA, the binding signal (log2 normalized intensity) worked out at 4.37.

In the case of CGGTGCATTTTTTTCCACCCTCCCCTCCCC, the binding signal (log2 normalized intensity) is 5.16.

CTCAATCGCCTTTTATTTTTCCCCTGAAAT: the binding signal (log2 normalized intensity) is 2.8.

With GCTAGAGATTCTCCCTGGGGCCTCTGAAGT, the binding signal (log2 normalized intensity) was -1.18.

In the case of ACAGTGACGTTCTGCCCCTTATCTTCTGGC, the binding signal (log2 normalized intensity) stood at 2.22.

TCCGAACGCCAGCAGCAGGGTCAGAAGGGA: the binding signal (log2 normalized intensity) is -1.29.

As for CCTCACAATCTTAAGATAAGGTCTTTCTGA, the binding signal (log2 normalized intensity) was determined as 0.0701.

For the sequence GTCAGGCAGAGAGGGACTCTGACCCAGGAG, the binding signal (log2 normalized intensity) was determined as 3.07.

On to TGGCATTCCAGGATGAAGGAAGAGGGAAGA, for which the binding signal (log2 normalized intensity) was -1.25.

Regarding TCTGTCCTGAGATGTCTGCTTCTTGGGTCA, the binding signal (log2 normalized intensity) came out at 2.5.

Turning to CCATCCCCCAATACACACACACCCCTCCAC, the binding signal (log2 normalized intensity) amounted to 6.37.

GTCCAAGGACTCAATGATACCATCAGATAC: the binding signal (log2 normalized intensity) was -1.36.

For CAGATGTTTCTGCAAGCACACTGTCCTGCT, the binding signal (log2 normalized intensity) is -1.33.

For the sequence GAACTGAAAGAGACCTTTGACATCACCTAA, the binding signal (log2 normalized intensity) was 2.77.

Turning to GATCGATCACACAGACAGACATTCAGAAAC, the binding signal (log2 normalized intensity) is -0.921.

For the sequence GCTTGTCGAGGACAGGATGGGGGTGGGAGG, the binding signal (log2 normalized intensity) is -1.29.

Take CTAGGCAGCATAGGGCCACTTTGTCCTTCA: the binding signal (log2 normalized intensity) was 0.683.

For TCAGGAGAGGAGGCCCACACCCCTGGGGAA, the binding signal (log2 normalized intensity) is -1.35.

Take TCTCTTACCAGCTGGGGTTTTACCAGGCAC: the binding signal (log2 normalized intensity) amounted to 0.0183.

Turning to GACCCGTCAGCCCTGGTCCAGGCCATGCAA, the binding signal (log2 normalized intensity) is -1.22.

Regarding GATAACCCACCTCCGGCCGGGAAGATGCCA, the binding signal (log2 normalized intensity) is -1.38.

Turning to ATTAATTAAAGAACTGACAAGCAGTGACCA, the binding signal (log2 normalized intensity) came to 1.5.

In the case of AGGCCTTTATTTGCTTATAGCTCAAAGTCC, the binding signal (log2 normalized intensity) worked out at 6.06.

For GTTAAAGACCTTTGGGTAGGAATAGAGCTC, the binding signal (log2 normalized intensity) worked out at 0.581.

Regarding GGGAGAATGATAAGATATATGACTCTAGAT, the binding signal (log2 normalized intensity) was -0.791.

Consider CCCTAGTTTTTCTTCCGGTCACATACTCTG, for which the binding signal (log2 normalized intensity) was found to be 1.42.

Turning to GCAGAAAAACATATTTGCATAATGGAGCAA, the binding signal (log2 normalized intensity) is -0.812.

With TACGTACAATCTAAAAATGTTGAACTCACA, the binding signal (log2 normalized intensity) was determined as 2.29.

For the sequence GAGGCTGAAATGGTTACAAAGGTCACACTC, the binding signal (log2 normalized intensity) turned out to be 5.67.

As for AATTCCCTGCAAGGACAAAGGTCATGTTTT, the binding signal (log2 normalized intensity) was 7.11.

AAGGCTAGTCTTCTTTGGGGCTTAGATAGC: the binding signal (log2 normalized intensity) was -0.856.

For the sequence CGACCACTGGCTGAACAGGGTCAGTGCAAT, the binding signal (log2 normalized intensity) amounted to 1.54.

With TCCAAAGGTCAATGCCAGGACCCTGTGGGA, the binding signal (log2 normalized intensity) was 3.57.

Regarding CCCGCGCGTGGCCCAGCATGCCCCGCGCCG, the binding signal (log2 normalized intensity) is -0.772.

For the sequence CCTAAGCCCCATGCTGATAAGGGCCACAGA, the binding signal (log2 normalized intensity) is -0.943.

With CGGCTTGCGTCCCCAGGTGAACTCAGTCCT, the binding signal (log2 normalized intensity) came to 1.24.

With GGTGGCAGCAGCAGGCAGGGACTTTGGCCC, the binding signal (log2 normalized intensity) was found to be 6.19.

With GTGCAGGGGGCGAGCATGGCCGCTCCGCGA, the binding signal (log2 normalized intensity) is -1.29.

For the sequence CCAAGATACCACTGATAAGGTTCCAGCAAA, the binding signal (log2 normalized intensity) was -1.25.

In the case of GACAAGAAAAGTAATGAAAGGAAATCATTC, the binding signal (log2 normalized intensity) is -1.13.

Turning to TTGAAACCTAAGATGTCACAGGCAAGCAAG, the binding signal (log2 normalized intensity) was -1.31.

For TCTAAGCCCTTATCAAAAAGATAAGGACAC, the binding signal (log2 normalized intensity) is -1.25.
